{"source": "paper PMC5892938", "note": "The other results are listed elsewhere or left out. At the low end of the ranking, values are background and their order means little."}
{"target": "GST-SBP-SLBP (stem-loop binding protein) (UniProt Q14493)", "test": "targeted RNA Bind-n-Seq;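 further: DESeq read counts versus GST-SBP nonspecific binding control pulldown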", "settings": "RBNS binding buffer: 25 mM Tris pH 7.5, 150 mM KCl, 3 mM MgCl2, 0.1% Tween, 0.5 mg/mL BSA, 1 mM DTT; 27 nM protein, 750 pM RNA pool; temperature not stated; high values mean tight binding"}
{"sequence": "GGUCACGUCUCAAUCAACUCUUCCUCAGGAGUUUUCUCCUGCAAUGUCAACAGCUCGCAGUCAAG", "binding signal (log2 fold change)": 0.103}
{"sequence": "GGUCACGUCUCAAUCAACUCAAAAGAGGGGGGGAAAACCCCUUUACCCUCCGAAUCAACAGCUCGCAGUCAAG", "binding signal (log2 fold change)": -0.47}
{"sequence": "GGUCACGUCUCAAUCAACUCAUCCUCCAGGGAAAUCCCUGGCAAUCUCAACAGCUCGCAGUCAAG", "binding signal (log2 fold change)": -0.028}
{"sequence": "GGUCACGUCUCAAUCAACUCAGUUUCAGGAGUUUGCUCCUGCUUUCUCAACAGCUCGCAGUCAAG", "binding signal (log2 fold change)": 0.0327}
{"sequence": "GGUCACGUCUCAAUCAACUCCAAAGAGGGGGGGAAAACCCCUUUACCCUCCGUAUCAACAGCUCGCAGUCAAG", "binding signal (log2 fold change)": 0.125}
{"sequence": "GGUCACGUCUCAAUCAACUCUUCGUCCAGGGAAAUCCCUGGCAAAUUCAACAGCUCGCAGUCAAG", "binding signal (log2 fold change)": 0.152}
{"sequence": "GGUCACGUCUCAAUCAACUCCCAAGAGGGGGGGAAAACCCCUUUACCCUCAACCUCAACAGCUCGCAGUCAAG", "binding signal (log2 fold change)": -0.191}
{"sequence": "GGUCACGUCUCAAUCAACUCCCUGGAGGGGGGGAAAACCCCUUUACCCUCAUUAUCAACAGCUCGCAGUCAAG", "binding signal (log2 fold change)": -0.0951}
{"sequence": "GGUCACGUCUCAAUCAACUCAUUCCCCAGGGAAAACCCUGGCUUUCUCAACAGCUCGCAGUCAAG", "binding signal (log2 fold change)": -0.0221}
{"sequence": "GGUCACGUCUCAAUCAACUCUUCGGAGGGGGGGAAAACCCCUUUACCCUCACUAUCAACAGCUCGCAGUCAAG", "binding signal (log2 fold change)": -0.0809}
{"sequence": "GGUCACGUCUCAAUCAACUCUUCUCCCAGGGAAAUCCCUGGCUUAUUCAACAGCUCGCAGUCAAG", "binding signal (log2 fold change)": -0.0502}
{"sequence": "GGUCACGUCUCAAUCAACUCAUUUUCCAGGGAAAACCCUGGCUUUUUCAACAGCUCGCAGUCAAG", "binding signal (log2 fold change)": 0.00695}
{"sequence": "GGUCACGUCUCAAUCAACUCUCAAGAGGGGGGGAAAACCCCUUUGCCCUCACACUCAACAGCUCGCAGUCAAG", "binding signal (log2 fold change)": 0.00523}
{"sequence": "GGUCACGUCUCAAUCAACUCUAUCCCCAGGGAAAACCCUGGUUUAUUCAACAGCUCGCAGUCAAG", "binding signal (log2 fold change)": -0.165}
{"sequence": "GGUCACGUCUCAAUCAACUCAACUCCCAGGGAAAGCCCUGGUAAUCUCAACAGCUCGCAGUCAAG", "binding signal (log2 fold change)": -0.0822}
{"sequence": "GGUCACGUCUCAAUCAACUCUUCGCCCAGGGAAACCCCUGGUAAUUUCAACAGCUCGCAGUCAAG", "binding signal (log2 fold change)": -0.151}
{"sequence": "GGUCACGUCUCAAUCAACUCAUCCCCCAGGGAAAGCCCUGGCAUAUUCAACAGCUCGCAGUCAAG", "binding signal (log2 fold change)": 0.104}
{"sequence": "GGUCACGUCUCAAUCAACUCUACUUCCAGGGAAAGCCCUGGCUAUGUCAACAGCUCGCAGUCAAG", "binding signal (log2 fold change)": -0.35}
{"sequence": "GGUCACGUCUCAAUCAACUCUAUUUCAGGAGUUUACUCCUGUUAUCUCAACAGCUCGCAGUCAAG", "binding signal (log2 fold change)": -0.0356}
{"sequence": "GGUCACGUCUCAAUCAACUCUUACGAGGGGGGGAAAACCCCUUUGCCCUCAAUCUCAACAGCUCGCAGUCAAG", "binding signal (log2 fold change)": 0.194}
{"sequence": "GGUCACGUCUCAAUCAACUCUUCCUCAGGAGUUUUCUCCUGUAUACUCAACAGCUCGCAGUCAAG", "binding signal (log2 fold change)": -0.128}
{"sequence": "GGUCACGUCUCAAUCAACUCAUCCUCCAGGGAAAUCCCUGGUAAAUUCAACAGCUCGCAGUCAAG", "binding signal (log2 fold change)": 0.0699}
{"sequence": "GGUCACGUCUCAAUCAACUCAUCUUCCAGGGAAAUCCCUGGUAUAUUCAACAGCUCGCAGUCAAG", "binding signal (log2 fold change)": 0.125}
{"sequence": "GGUCACGUCUCAAUCAACUCAUCCUCCAGGGAAAGCCCUGGCUUUCUCAACAGCUCGCAGUCAAG", "binding signal (log2 fold change)": 0.287}
{"sequence": "GGUCACGUCUCAAUCAACUCUAUGUCAGGAGUUUACUCCUGUUUUCUCAACAGCUCGCAGUCAAG", "binding signal (log2 fold change)": -0.0412}
{"sequence": "GGUCACGUCUCAAUCAACUCAACUUCCAGGGAAAUCCCUGGCUUACUCAACAGCUCGCAGUCAAG", "binding signal (log2 fold change)": -0.131}
{"sequence": "GGUCACGUCUCAAUCAACUCUACUUCAGGAGUUUACUCCUGCUAUUUCAACAGCUCGCAGUCAAG", "binding signal (log2 fold change)": -0.0533}
{"sequence": "GGUCACGUCUCAAUCAACUCCGCAGAGGGGGGGAAAACCCCUUUACCCUCAACAUCAACAGCUCGCAGUCAAG", "binding signal (log2 fold change)": -0.0352}
{"sequence": "GGUCACGUCUCAAUCAACUCUCUAGAGGGGGGGAAAACCCCUUUGCCCUCCAUAUCAACAGCUCGCAGUCAAG", "binding signal (log2 fold change)": 0.0573}
{"sequence": "GGUCACGUCUCAAUCAACUCUUCUCCAGGAGUUUACUCCUGUUUACUCAACAGCUCGCAGUCAAG", "binding signal (log2 fold change)": 0.0333}
{"sequence": "GGUCACGUCUCAAUCAACUCAUCCUCAGGAGUUUACUCCUGCUAUCUCAACAGCUCGCAGUCAAG", "binding signal (log2 fold change)": 0.0238}
{"sequence": "GGUCACGUCUCAAUCAACUCUUCUCCCAGGGAAAGCCCUGGUAUUCUCAACAGCUCGCAGUCAAG", "binding signal (log2 fold change)": -0.184}
{"sequence": "GGUCACGUCUCAAUCAACUCAUACGAGGGGGGGAAAACCCCUUUGCCCUCAACAUCAACAGCUCGCAGUCAAG", "binding signal (log2 fold change)": 0.15}
{"sequence": "GGUCACGUCUCAAUCAACUCUUAAGAGGGGGGGAAAACCCCUUUGCCCUCACUUUCAACAGCUCGCAGUCAAG", "binding signal (log2 fold change)": -0.00531}
{"sequence": "GGUCACGUCUCAAUCAACUCUAUGUCAGGAGUUUCCUCCUGUUUAUUCAACAGCUCGCAGUCAAG", "binding signal (log2 fold change)": -0.0552}
{"sequence": "GGUCACGUCUCAAUCAACUCUUCCUCAGGAGUUUACUCCUGCAAACUCAACAGCUCGCAGUCAAG", "binding signal (log2 fold change)": -0.0934}
{"sequence": "GGUCACGUCUCAAUCAACUCAGUCUCAGGAGUUUACUCCUGUUUAUUCAACAGCUCGCAGUCAAG", "binding signal (log2 fold change)": 0.0622}
